We go through 19 compounds from patent US20240262848A1, “HETEROCYCLIC COMPOUNDS, COMPOSITIONS THEREOF, AND METHODS OF TREATMENT THEREWITH” (BeiGene, Ltd., priority 2022, published 2024).

The target of the experiment is GST-tagged GDP-loaded WT KRAS (amino acids 1-169) (Homo sapiens, UniProt P01116). As to the kind of experiment: KRAS WT probe displacement assay (run with the KRAS G12V assay, TR-FRET). Particulars: Table 4; WT KRAS 3 nM, biotinylated probe 1 60 nM. In kind it is binding.
Usually IC50 stands for the concentration at which inhibition is half-maximal. Higher therefore signals weaker potency in that assay. In turn, `CN1c2nc(OC[C@@]34CCCN3C[C@H](F)C4)nc3c(F)c(-c4cc(N)cc(Cl)c4C(F)(F)F)nc(c23)OCC12CCC2` [Example 24, 3-chloro-5-(4′-fluoro-2′-(((2R,7aS)-2-fluorotetrahydro-1H-pyrrolizin-7a(5H)-yl)methoxy)-10′-methyl-8′H, 10′H-7′-oxa-1′,3′,6′,10′-tetraazaspiro[cyclobutane-1,9′-cyclohepta[de]naphthalen]-1′(10a′), 2′,3a′, 3 al′(6a′), 5′-pentaen-5′-yl)-4-(trifluoromethyl)aniline] showed an IC50 of 4.2 nM.

The compound `C[C@@H]1CCOc2nc(-c3cc(N)cc(Cl)c3C(F)(F)F)c(F)c3nc(OC[C@@]45CCCN4C[C@H](F)C5)nc(c23)N1C` [Example 26, 3-chloro-5-((R)-4-fluoro-2-(((2R,7aS)-2-fluorotetrahydro-1H-pyrrolizin-7a(5H)-yl)methoxy)-10,11-dimethyl-8,9,10,11-tetrahydro-7-oxa-1,3,6,11-tetraazacycloocta[de]naphthalen-5-yl)-4-(trifluoromethyl)aniline] displayed an IC50 of 1.3 nM. Under `CN1c2nc(OC[C@@]34CCCN3C[C@H](F)C4)nc3c(F)c(-c4ccc(F)c5sc(N)c(C#N)c45)c(Cl)c(c23)OCCC12COC2` [Example 28, 2-amino-4-(9′-chloro-11′-fluoro-2′-(((2R,7aS)-2-fluorotetrahydro-1H-pyrrolizin-7a(5H)-yl)methoxy)-4′-methyl-6′,7′-dihydro-4′H-spiro[oxetane-3,5′-[1,5]oxazocino[4,3,2-de]quinazolin]-10′-yl)-7-fluorobenzo[b]thiophene-3-carbonitrile] stands 3.2 nM; under `CN1c2nc(OC[C@@]34CCCN3C[C@H](F)C4)nc3c(F)c(-c4cc(N)cc(Cl)c4C(F)(F)F)nc(c23)OCC12CC2` [Example 29, 3-chloro-5-(4-fluoro-2-(((2R,7aS)-2-fluorotetrahydro-1H-pyrrolizin-7a(5H)-yl)methoxy)-10-methyl-8H, 10H-7-oxa-1,3,6,10-tetraazaspiro[cyclohepta[de]naphthalene-9,1′-cyclopropan]-1(10a), 2,3a, 3 al(6a), 5-pentaen-5-yl)-4-(trifluoromethyl)aniline], 1.7 nM; under `CN1c2nc(OC[C@@]34CCCN3C[C@H](F)C4)nc3c(F)c(-c4cc(N)cc(Cl)c4C(F)(F)F)nc(c23)OCCC12CCC2` [Example 32, 3-chloro-5-(4′-fluoro-2′-(((2R,7aS)-2-fluorotetrahydro-1H-pyrrolizin-7a(5H)-yl)methoxy)-11′-methyl-8′,9′-dihydro-11′H-7′-oxa-1′,3′,6′,11′-tetraazaspiro[cyclobutane-1,10′-cycloocta[de]naphthalen]-1′(11a′), 2′,3a′, 3 al′(6a′), 5′-pentaen-5′-yl)-4-(trifluoromethyl)aniline], 11 nM. `CN1c2nc(OC[C@@]34CCCN3C[C@H](F)C4)nc3c(F)c(-c4cc(N)cc(Cl)c4C(F)(F)F)nc(c23)OCCC12CC(O)C2` (stereo partly drawn) [Example 33, 5′-(5-amino-3-chloro-2-(trifluoromethyl)phenyl)-4′-fluoro-2′-(((2R,7aS)-2-fluorotetrahydro-1H-pyrrolizin-7a(5H)-yl)methoxy)-11′-methyl-8′,9′-dihydro-11′H-7′-oxa-1′,3′,6′,11′-tetraazaspiro[cyclobutane-1,10′-cycloocta[de]naphthalen]-1′(11a′), 2′0.3a′, 3 al′(6a′), 5′-pentaen-3-ol] displayed an IC50 of 0.53 nM. The figure for `CN1c2nc(OC[C@@]34CCCN3C[C@H](F)C4)nc3c(F)c(-c4cc(N)cc(Cl)c4C(F)(F)F)nc(c23)OC2CCCC21` (stereo partly drawn) [Example 45, 3-chloro-5-((7a, 10a-trans)-4-fluoro-2-(((2R,7aS)-2-fluorotetrahydro-1H-pyrrolizin-7a(5H)-yl)methoxy)-11-methyl-7a, 8,9,10,10a, 11-hexahydro-7-oxa-1,3,6,11-tetraazanaphtho[1,8-fg]azulen-5-yl)-4-(trifluoromethyl)aniline] is 4.6 nM; for `CN1c2nc(OC[C@@]34CCCN3C[C@H](F)C4)nc3c(F)c(-c4cc(N)cc(Cl)c4C(F)(F)F)nc(c23)O[C@H]2CCCC[C@@H]21` [Example 46, 3-chloro-5-((7aS,11aS)-4-fluoro-2-(((2R,7aS)-2-fluorotetrahydro-1H-pyrrolizin-7a(5H)-yl)methoxy)-12-methyl-7a, 8,10,11,11a, 12-hexahydro-9H-7-oxa-1,3,6,12-tetraazapleiaden-5-yl)-4-(trifluoromethyl)aniline] it is 0.58 nM; for `CN1c2nc(OC[C@@]34CCCN3C[C@H](F)C4)nc3c(F)c(-c4cc(N)cc(Cl)c4C(F)(F)F)nc(c23)O[C@H]2CCOC[C@@H]21` [Example 50, 3-chloro-5-((7aS,11aS)-4-fluoro-2-(((2R,7aS)-2-fluorotetrahydro-1H-pyrrolizin-7a(5H)-yl)methoxy)-12-methyl-7a, 8,11a, 12-tetrahydro-9H, 11H-7,10-dioxa-1,3,6,12-tetraazapleiaden-5-yl)-4-(trifluoromethyl)aniline] it is 0.61 nM. Consider `CN1c2nc(OC[C@@]34CCCN3C[C@H](F)C4)nc3c(F)c(-c4cc(N)cc(Cl)c4C(F)(F)F)nc(c23)OC[C@H]2CCC[C@H]21` [Example 52, 3-chloro-5-((8aS,11aR)-4-fluoro-2-(((2R,7aS)-2-fluorotetrahydro-1H-pyrrolizin-7a(5H)-yl)methoxy)-12-methyl-8a, 9,10,11,11a, 12-hexahydro-8H-7-oxa-1,3,6,12-tetraazacyclopenta[5,6]cycloocta[1,2,3-de]naphthalen-5-yl)-4-(trifluoromethyl)aniline], for which the IC50 amounted to 8.1 nM. This IC50 is about 13-fold higher than that of the compound before. In turn, `Cc1cc(N)cc(-c2nc3c4c(nc(OC[C@@]56CCCN5C[C@H](F)C6)nc4c2F)N(C)C2(CCO3)CC2)c1C(F)(F)F` [Example 53, 3-(4-fluoro-2-(((2R,7aS)-2-fluorotetrahydro-1H-pyrrolizin-7a(5H)-yl)methoxy)-11-methyl-8,9-dihydro-11H-7-oxa-1,3,6,11-tetraazaspiro[cycloocta[de]naphthalene-10,1′-cyclopropan]-1(11a), 2,3a, 3 al(6a), 5-pentaen-5-yl)-5-methyl-4-(trifluoromethyl)aniline] displayed an IC50 of 1.9 nM. Under `CCN1c2nc(OC[C@@]34CCCN3C[C@H](F)C4)nc3c(F)c(-c4cc(N)cc(C)c4C(F)(F)F)nc(c23)OCCC12CC2` [Example 54, 3-(11-ethyl-4-fluoro-2-(((2R,7aS)-2-fluorotetrahydro-1H-pyrrolizin-7a(5H)-yl)methoxy)-8,9-dihydro-11H-7-oxa-1,3,6,11-tetraazaspiro[cycloocta[de]naphthalene-10,1′-cyclopropan]-1(11a), 2,3a, 3a^1(6a), 5-pentaen-5-yl)-5-methyl-4-(trifluoromethyl)aniline] stands 3.4 nM; under `CCN1c2nc(OCC34CCCN3CC(F)C4)nc3c(F)c(-c4cc(N)cc(Cl)c4C(F)(F)F)nc(c23)OCCC12CC2` [Example 55, 3-chloro-5-(11-ethyl-4-fluoro-2-(((2R,7aS)-2-fluorotetrahydro-1H-pyrrolizin-7a(5H)-yl)methoxy)-8,9-dihydro-11H-7-oxa-1,3,6,11-tetraazaspiro[cycloocta[de]naphthalene-10,1′-cyclopropan]-1(11a), 2,3a, 3 al(6a), 5-pentaen-5-yl)-4-(trifluoromethyl)aniline], 0.87 nM. Under `CCN1c2nc(OC[C@@]34CCCN3C[C@H](F)C4)nc3c(F)c(-c4cc(N)cc(C)c4C(F)(F)F)nc(c23)OCCC12COC2` [Example 56, 3-(11-ethyl-4-fluoro-2-(((2R,7aS)-2-fluorotetrahydro-1H-pyrrolizin-7a(5H)-yl)methoxy)-8,9-dihydro-11H-7-oxa-1,3,6,11-tetraazaspiro[cycloocta[de]naphthalene-10,3′-oxetan]-1(11a), 2,3a, 3a^1(6a),5-pentaen-5-yl)-5-methyl-4-(trifluoromethyl)aniline] stands 2 nM; under `CCN1c2nc(OC[C@@]34CCCN3C[C@H](F)C4)nc3c(F)c(-c4cc(N)cc(C)c4C(F)(F)F)nc(c23)O[C@H]2COCC[C@@H]21` [Example 57, 3-((7aR,11aS)-12-ethyl-4-fluoro-2-(((2R,7aS)-2-fluorotetrahydro-1H-pyrrolizin-7a(5H)-yl)methoxy)-7a, 8,10,11,11a, 12-hexahydro-7,9-dioxa-1,3,6,12-tetraazapleiaden-5-yl)-5-methyl-4-(trifluoromethyl)aniline], 2.4 nM. Under `CCN1c2nc(OC[C@@]34CCCN3C[C@H](F)C4)nc3c(F)c(-c4cc(N)cc(Cl)c4C(F)(F)F)nc(c23)O[C@H]2COCC[C@@H]21` [Example 58, 3-chloro-5-((7aR,11aS)-12-ethyl-4-fluoro-2-(((2R,7aS)-2-fluorotetrahydro-1H-pyrrolizin-7a(5H)-yl)methoxy)-7a, 8,10,11,11a, 12-hexahydro-7,9-dioxa-1,3,6,12-tetraazaplciaden-5-yl)-4-(trifluoromethyl)aniline] stands 0.63 nM. For the compound `CN1c2nc(OCC3(C)CCC4COCCN4C3)nc3c(F)c(-c4cc(N)cc(Cl)c4C(F)(F)F)nc(c23)O[C@H]2COCC[C@@H]21` (stereo partly drawn) [Example 60, 3-chloro-5-((7aR,11aS)-4-fluoro-12-methyl-2-((7-methyloctahydropyrido[2,1-c][1,4]oxazin-7-yl)methoxy)-7a, 8,10,11,11a, 12-hexahydro-7,9-dioxa-1,3,6,12-tetraazapleiaden-5-yl)-4-(trifluoromethyl)aniline], the IC50 came out at 1.6 nM.

`CN1CCOC(C)(COc2nc3c4c(nc(-c5cc(N)cc(Cl)c5C(F)(F)F)c(F)c4n2)O[C@H]2COCC[C@@H]2N3C)C1` (stereo partly drawn) [Example 63, 3-chloro-5-((7aR,11aS)-2-((2,4-dimethylmorpholin-2-yl)methoxy)-4-fluoro-12-methyl-7a, 8,10,11,11a, 12-hexahydro-7,9-dioxa-1,3,6,12-tetraazapleiaden-5-yl)-4-(trifluoromethyl)aniline]: the half-maximal inhibitory concentration (IC50) stood at 2.7 nM. The figure for `CN1c2nc(OC[C@@]34CCCN3C[C@H](F)C4)nc3c(F)c(-c4cc(N)c(F)c(Cl)c4C(F)(F)F)nc(c23)O[C@H]2COCC[C@@H]21` [Example 66, 3-chloro-2-fluoro-5-((7aR,11aS)-4-fluoro-2-(((2R,7aS)-2-fluorotetrahydro-1H-pyrrolizin-7a(5H)-yl)methoxy)-12-methyl-7a, 8,10,11,11a, 12-hexahydro-7,9-dioxa-1,3,6,12-tetraazapleiaden-5-yl)-4-(trifluoromethyl)aniline] is 0.58 nM.
